From PubChem BioAssay AID485294 (National Center for Advancing Translational Sciences (NCATS), 2010)
Out of some 370,000 compounds screened, about 150 (0.041%) were called active. The shares of active, inactive and inconclusive entries below differ from those in the screen. Calls come from the whole dose curve; as a rule, active = well fitted inhibition curve with a large enough effect; inconclusive = small, poorly fitted or top-dose-only effect; inactive = flat fitted curve, though single readings scatter. Potencies of inconclusive entries are left out as doubtful fits.

target: Beta-lactamase (Escherichia coli (strain K12)) (UniProt P00811); assay: qHTS Inhibitors of AmpC Beta-Lactamase (assay with detergent); details: AmpC hydrolysis of nitrocefin, absorbance 480 nm, 0.01% Triton; activity change, negative = inhibition: at 114 µM (top of the series); note: nearly all actives have a fitted effect of over 25% in size;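 for activity change, negative = inhibition: 0% = no-compound wells and -100% = no-enzyme wells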
UniProt P00811, sequence (P00811 whole entry, looked up): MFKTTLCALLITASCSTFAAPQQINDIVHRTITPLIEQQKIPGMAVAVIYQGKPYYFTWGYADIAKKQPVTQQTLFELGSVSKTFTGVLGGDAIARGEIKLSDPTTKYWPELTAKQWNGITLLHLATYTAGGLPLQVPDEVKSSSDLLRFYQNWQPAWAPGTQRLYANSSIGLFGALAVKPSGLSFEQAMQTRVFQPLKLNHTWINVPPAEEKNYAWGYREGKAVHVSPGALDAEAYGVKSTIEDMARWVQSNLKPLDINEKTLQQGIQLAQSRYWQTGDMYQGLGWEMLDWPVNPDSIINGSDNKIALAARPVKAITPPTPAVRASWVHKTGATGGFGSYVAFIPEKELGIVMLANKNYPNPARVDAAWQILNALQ
Summary of the method: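 AmpC (5.3 nM in the dispensed reagent) in 20 mM phosphate pH 7.0 with 0.01% (detergent screen) or 0.0001% Triton X-100 was preincubated with compounds for 15 min at room temperature. Nitrocefin was then added from an 800 uM solution, and hydrolysis was followed at 480 nm.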
Potency is the fitted concentration of half-maximal effect; tags give direction and shape of the fitted curve.

Compound	activity change, negative = inhibition	Potency
Cn1c(Cc2c[nH]c3ccccc23)n[nH]c1=S	inactive: 0.978%	–
COc1ccc(-c2cc(CNS(=O)(=O)c3ccccc3)on2)cc1	–	inconclusive [inhibitor, full curve]
CNC(=O)/C(=C/c1ccc2c(c1)OCO2)NC(=O)c1ccc(Br)cc1	–	inconclusive [inhibitor, partial curve, poor fit]
COc1ccccc1N(CC(=O)NCC1CCCO1)C(=O)CCC(=O)Nc1nccs1 (centres undefined)	–	inconclusive [inhibitor, partial curve, poor fit]
CSc1ccc(-c2nnn(Cc3ccccn3)n2)cc1	–	inconclusive [inhibitor, partial curve]
O=C(NC(=S)Nc1ccc(S(=O)(=O)Nc2nccs2)cc1)c1ccc(F)cc1	–	inconclusive [inhibitor, full curve, poor fit]
CC(=O)c1ccc(OCC(=O)NC2CCCCCC2)cc1	–	inconclusive [inhibitor, full curve, poor fit]
O=C(NC1(C(F)(F)F)NC(=O)N(c2ccc(F)cc2)C1=O)c1cccs1 (centres undefined)	–	inconclusive [inhibitor, full curve, poor fit]
Cc1cc(C)c(Cn2c(=O)n(CCC(=O)NCc3ccc4c(c3)OCO4)c(=O)c3ccccc32)c(C)c1	inactive: 18.4%	–
O=C(NCCc1ccc(Cl)cc1)c1cccc(NC2=NC3CS(=O)(=O)CC3S2)c1 (centres undefined)	–	inconclusive [inhibitor, single point]
COc1ccc(OC)c(S(=O)(=O)n2ccc(C)n2)c1	–	inconclusive [inhibitor, partial curve, poor fit]
C=CCNC(=O)c1cc(=O)c2ccccc2o1	–	inconclusive [inhibitor, partial curve]
COc1ccc(NC2=NCCCCC2)cc1	–	inconclusive [inhibitor, full curve]
COC(=O)c1c(-c2ccc(Cl)cc2)noc1N1CCN(c2ccccc2OC)CC1	inactive: 5.19%	–
COc1ccccc1S(=O)(=O)Cc1ccc(C(=O)N2CCN(c3cc(Cl)ccc3C)CC2)o1	–	inconclusive [inhibitor, single point]
O=C(/C=C/NNC(=O)c1ccc(Br)cc1)c1ccccc1	–	inconclusive [inhibitor, partial curve, poor fit]
CN(C)CCC(c1ccc(Cl)cc1)c1ccccn1 (centres undefined)	–	inconclusive [inhibitor, full curve, poor fit]
Cn1nnnc1SCC1=C(C(=O)O)N2C(=O)C(NC(=O)C3CC3c3ccccc3)C2SC1 (centres undefined)	inactive: -0.923%	–
O=C1C(=C2CCCCC2)SC(=S)N1Cc1ccco1	–	inconclusive [inhibitor, full curve, poor fit]
CN(C)c1ccc(C(=O)Nc2ccc(S(=O)(=O)NC3=NCCCCC3)cc2)cc1	–	inconclusive [inhibitor, full curve, poor fit]
O=C(CCCCCN1C(=O)CCC1=O)Nc1ncn[nH]1	–	inconclusive [inhibitor, partial curve]
O=P(OCC(F)(F)C(F)F)(N1CCOCC1)N1CCOCC1	–	inconclusive [inhibitor, full curve, poor fit]
O=C(NCCc1ccc(Cl)cc1)c1ccc2ccccc2n1	–	inconclusive [inhibitor, full curve, poor fit]

Compound	activity change, negative = inhibition	Potency
Cc1c(Cl)cccc1NC(=O)CNC(=O)c1ccco1	–	inconclusive [inhibitor, full curve, poor fit]
O=C1N(Nc2ccccc2)C(c2ccc(Br)cc2)C12CCCCC2 (centres undefined)	–	inconclusive [inhibitor, full curve, poor fit]
COc1ccccc1NC(=O)Nc1nc(CC(=O)Nc2ccc(F)c(F)c2)cs1	–	inconclusive [inhibitor, single point]
COc1ccc(C(=O)N2CC(c3ccccc3)CC2=O)cc1 (centres undefined)	inactive: -6.97%	–
Cc1cc2[nH]c(=O)cc(-c3ccccc3)n2n1	inactive: -3.41%	–
CCOC(=O)N1CCC(NC(=O)c2cc3c(-c4ccccc4F)nn(C)c3s2)CC1	–	inconclusive [inhibitor, partial curve]
CCCc1cc(=O)oc2cc(OCC(=O)NC(Cc3ccc(Cl)cc3)C(=O)O)ccc12 (centres undefined)	–	inconclusive [inhibitor, full curve, poor fit]
Nc1ccc2nc3c(=O)n(C4CCCCC4)c(=O)[nH]c3nc2c1	–	inconclusive [inhibitor, partial curve, poor fit]
O=C(Cn1cc(C(=O)C2CC2)c2ccccc21)NCc1ccccc1	inactive: 2.02%	–
COC(=O)c1ccccc1NC(=O)c1cccnc1	–	inconclusive [inhibitor, partial curve, poor fit]
CCn1c(=NC(=O)c2ccc(S(=O)(=O)N(C)C)cc2)sc2cccc(OC)c21	–	inconclusive [inhibitor, partial curve]
CC(=O)Nc1ccc(S(=O)(=O)NCC(=O)NNC(=O)COc2ccccc2Cl)cc1	–	inconclusive [inhibitor, full curve, poor fit]
CCOc1ccc(C(=O)Nc2cc(Cl)ccc2-n2cncn2)cc1OC	–	inconclusive [inhibitor, full curve, poor fit]
CCOc1cc(C2NC(=S)NC(C)=C2C(=O)Nc2ccc(OC)cc2)ccc1O (centres undefined)	–	inconclusive [inhibitor, partial curve]
CCc1ccc(CN2CCN(C(=O)c3ccco3)CC2)cc1	–	inconclusive [inhibitor, full curve, poor fit]
CCC(=O)Nc1ccc(S(=O)(=O)NCCc2ccccc2)cc1	–	inconclusive [inhibitor, full curve, poor fit]
C=C1CCC[C@]2(C)C[C@H]3OC(=O)C(CN[C@@H](C)c4ccccc4)[C@H]3CC12 (some centres undefined)	inactive: -11.2%	–
CCOc1ccc(N(CC(=O)NC(C)(C)C)S(=O)(=O)c2c(C)noc2C)cc1	–	inconclusive [inhibitor, partial curve, poor fit]
CC(=O)N1c2ccccc2Oc2cc3ccccc3cc21	–	inconclusive [inhibitor, single point]
CCOc1ccccc1CNC(=O)c1ccc2nc(N3CCC(C)CC3)sc2c1	inactive: 0.426%	–
CC(=O)Nc1ccc(NC(=O)CC2SC(=O)N(CC(=O)c3ccccc3)C2=O)cc1 (centres undefined)	inactive: -7.3%	–
CCOc1ccc(NC(=O)c2sc(-n3nc(C)c(CCC(C)C)c3C)nc2C)cc1	inactive: 14.3%	–
Cc1cn2c(-c3cccnc3)nnc2s1	–	inconclusive [inhibitor, single point]

Compound	activity change, negative = inhibition	Potency
CCCc1nnc(NC(=O)CCC(=O)N2CCN(CCOC(c3ccccc3)c3ccccc3)CC2)s1	inactive: -18.8%	–
C/C(CC(=O)Nc1cccc(Cl)c1C)=N\NC(=O)Cc1csc(N)n1	–	inconclusive [inhibitor, full curve]
CCCCc1nc2c(=O)[nH]c3ccccc3c2o1	–	inconclusive [inhibitor, single point]
CN=C1SC(CC(=O)Nc2ccccc2F)C(=O)N1C (centres undefined)	inactive: -14.2%	–
CCC(C)c1ccccc1N=Cc1ccc2c(c1)OCO2 (centres undefined)	–	inconclusive [inhibitor, single point]
CCOc1cc(C(=O)N/N=C/c2ccoc2)cc(OCC)c1OCC	inactive: 2.94%	–
CCN1CCN(C(=O)CNC(=O)c2nn(-c3ccc(OC)cc3)c(=O)c3ccccc23)CC1	–	inconclusive [inhibitor, full curve, poor fit]
CC(=O)c1ccc2c(c1)C1C(Cl)C(Sc3ccccc3[N+](=O)[O-])CC1C(C(=O)O)N2 (centres undefined)	–	inconclusive [inhibitor, partial curve]
COc1ccc(OC)c(C2C(C(=O)c3ccc(C)o3)=C(O)C(=O)N2CCN2CCOCC2)c1 (centres undefined)	inactive: -0.683%	–
O=C(NCc1ccccc1)NC1COc2ccccc2C1 (centres undefined)	inactive: -5.54%	–
Cc1cc(S(=O)(=O)Nc2c(C)nn(C)c2C)c(Cl)cc1Cl	inactive: 1.83%	–
Cn1cc(/C=C2\SC(=S)N(NC(=O)c3cccc(Cl)c3)C2=O)c2ccccc21	–	inconclusive [inhibitor, single point]
CCCCN(CC)c1nc(N)c2c(N)nc(OCC)cc2c1C#N	inactive: 1.51%	–
Cc1cc(C)n(-c2nncn2/N=C/c2ccccc2F)n1	–	inconclusive [inhibitor, partial curve, poor fit]
COc1ccc2[nH]c(=O)c(CNc3ccccc3C)cc2c1	inactive: -1.04%	–
COc1ccc(-c2nc(CSCC(=O)N3CCN(c4ccccc4F)CC3)c(C)o2)cc1	–	inconclusive [inhibitor, partial curve]
Cc1ccc(C)c(S(=O)(=O)Nc2ccc(O)c(Sc3ncn[nH]3)c2)c1	inactive: -0.0962%	–
CCN(CC(=O)NCc1cccs1)C(=O)c1cccc(S(=O)(=O)N2CCc3ccccc32)c1	inactive: -0.0572%	–
Cc1cccc(OC(=O)c2snnc2C)c1	inactive: 20.1%	–
O=C(Nc1ccc(N2CCOCC2)cc1)c1ccc([N+](=O)[O-])o1	–	inconclusive [inhibitor, partial curve]
COC(=O)CSc1nc(N)nc(C)c1Br	–	inconclusive [inhibitor, full curve, poor fit]
O=C(CSc1nc2ccsc2c(=O)n1Cc1ccc(C(=O)O)cc1)NCc1ccco1	–	inconclusive [inhibitor, partial curve, poor fit]
CN(CC(=O)Nc1cccc(F)c1)C(=O)c1ccc(COc2ccccc2)o1	–	inconclusive [inhibitor, partial curve, poor fit]
